Hit rate of the full screen: of about 150,000 compounds, about 180 (0.12%) were called active. The inconclusive results got no clear call from the source; some entries with a clear call stand among them for comparison. The call rests on the fitted dose curve; in most records, active means well fitted cell-killing curve with a large enough effect; inconclusive means small, poorly fitted or top-dose-only effect, or effect the other way; inactive means flat fitted curve, though single readings scatter. A potency beside an inconclusive call is a rough fit, not a confirmed value.
Assay: GF-AFC viability counterscreen for inhibitors of alpha-synuclein gene (SNCA) expression; further: nearly all actives have a fitted effect of over 30% in size
Conditions: HEK-293-SNCA-luc viability, GF-AFC fluorescence, 24 h; series mostly up to 57.1 µM
Outline: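 Cytotoxicity counterscreen: after 24 h compound treatment of genome-edited SNCA-luciferase HEK-293 cells, live-cell protease substrate GF-AFC read by fluorescence after 30 min; activity scaled between DMSO (0%) and medium-only (-100%), curves Hill-fitted.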
Potency means the concentration at half of the fitted maximal effect; tags describe the fitted curve by direction and shape.

SMILES	Potency
Fc1ccc(CN2CCC3(CC2)CC(c2cccc(C(F)(F)F)c2)=NO3)cc1	inactive
COc1ccc(CN2CCNC(=O)C2CC(=O)NCc2ccco2)c(F)c1 (configuration not stated)	inactive
COCCC(=O)N1CCCCCCNC(=O)[C@@H]2C[C@@H](C(=O)N3CCN(c4ccccn4)CC3)C[C@@H]21	inconclusive: 39.8 µM [cytotoxic, single point]
O=C(C1CC=CCC1)N1CC(c2noc(C3CCCN3CC3CC3)n2)C1 (configuration not stated)	inconclusive: 8.91 µM [cytotoxic, single point]
COc1ccc(C(=O)N[C@H]2CO[C@H]3[C@@H]2OC[C@@H]3Nc2nccc(-c3cccc(F)c3)n2)cc1	inconclusive: 20 µM [cytotoxic, partial curve, poor fit]
Cc1cn2nc(C(=O)NCc3ccc(C(F)(F)F)cc3)cc2c(N2CCSCC2)n1	inactive
CCNC(=O)OC1CN(C(=O)c2ccc(C(C)(C)C)cc2)CCC(=O)N(C)c2ccccc21 (configuration not stated)	inactive
Fc1ccc(C(c2ccc(F)cc2)N2CCN(CC=Cc3ccccc3)CC2)cc1	inconclusive: 27.1 µM [rising, partial curve]
O=C(CC1CCCN(c2cnn(CC3CC3)c(=O)c2)C1)Nc1cccc(F)c1 (configuration not stated)	inactive
CCc1ccc(C2c3c(-c4ccccc4O)n[nH]c3C(=O)N2Cc2ccncc2)cc1 (configuration not stated)	inconclusive: 20 µM [cytotoxic, partial curve, poor fit]
O=C(CCSc1nc(-c2ccco2)cc(C(F)(F)F)n1)Nc1cccc(O)c1	inconclusive: 31.6 µM [rising, partial curve, poor fit]
CCc1nc2c(c(-c3ccc(Cl)cc3)n1)CN(Cc1cccc(F)c1)CC2	inconclusive: 17.8 µM [cytotoxic, partial curve, poor fit]
O=C(NC1CC1)c1ccc2nnc(C3CCCC3)n2c1	inconclusive: 8.91 µM [rising, full curve, poor fit]
Cn1cc(CN2CCOC[C@H]2c2ncc(-c3ccc(S(C)(=O)=O)cc3)[nH]2)c2ccccc21	inconclusive: 35.5 µM [cytotoxic, single point]
Clc1cccc(N2CCN(c3ncnc4c3nc3n4CCCCC3)CC2)c1	inconclusive: 39.8 µM [cytotoxic, single point]
COc1cc(-n2cnc3cc(-c4ccc(Cl)cc4)sc3c2=O)ccc1OCCN1CCCC1	active: 11.9 µM
CCN(CC)S(=O)(=O)c1ccc2c(c1)N(CC(=O)NCCCN1CCN(c3ccccc3F)CC1)C(=O)CO2	inconclusive: 28.2 µM [cytotoxic, partial curve, poor fit]
